Further values from the same series stand in other lists.
Assays:
[1] = system: Rat; assay: concentration in plasma after dosing; conditions: 4 min; dosed: 2-Methyltetrahydrofuran; 10 mg/kg; oral; Female; F344
[2] = system: Rat; assay: concentration in brain after dosing; conditions: 1.5 h; dosed: 2-Methyltetrahydrofuran; 30 mg/kg; oral; Female; F344
[3] = system: Rat; assay: concentration in plasma after dosing; conditions: 4 min; dosed: 2-Methyltetrahydrofuran; 10 mg/kg; oral; Male; F344
[4] = system: Rat; assay: concentration in plasma after dosing; conditions: 2 h; dosed: 2-Methyltetrahydrofuran; 10 mg/kg; iv; Female; F344
[5] = system: Rat; assay: concentration in brain after dosing; conditions: 12 h; dosed: 2-Methyltetrahydrofuran; 400 mg/kg; oral; Male; F344
[6] = system: Rat; assay: concentration in plasma after dosing; conditions: 1 h; dosed: 2-Methyltetrahydrofuran; 10 mg/kg; oral; Male; F344
[7] = system: Rat; assay: concentration in brain after dosing; conditions: 20 min; dosed: 2-Methyltetrahydrofuran; 10 mg/kg; oral; Female; F344
[8] = system: Rat; assay: concentration in brain after dosing; conditions: 4 min; dosed: 2-Methyltetrahydrofuran; 10 mg/kg; oral; Male; F344
[9] = system: Rat; assay: concentration in plasma after dosing; conditions: 8 min; dosed: 2-Methyltetrahydrofuran; 10 mg/kg; oral; Female; F344
[10] = system: Rat; assay: concentration in brain after dosing; conditions: 5 min; dosed: 2-Methyltetrahydrofuran; 400 mg/kg; oral; Male; F344
[11] = system: Rat; assay: concentration in plasma after dosing; conditions: 2.5 h; dosed: 2-Methyltetrahydrofuran; 10 mg/kg; oral; Male; F344
[12] = system: Rat; assay: concentration in plasma after dosing; conditions: 5 min; dosed: 2-Methyltetrahydrofuran; 10 mg/kg; iv; Female; F344
[13] = system: Rat; assay: concentration in plasma after dosing; conditions: 1.5 h; dosed: 2-Methyltetrahydrofuran; 100 mg/kg; oral; Female; Harlan Sprague Dawley
[14] = system: Rat; assay: concentration in brain after dosing; conditions: 0.5 h; dosed: 2-Methyltetrahydrofuran; 10 mg/kg; oral; Male; F344
[15] = system: Rat; assay: concentration in plasma after dosing; conditions: 20 min; dosed: 2-Methyltetrahydrofuran; 10 mg/kg; iv; Male; F344
[16] = system: Rat; assay: concentration in plasma after dosing; conditions: 1.5 h; dosed: 2-Methyltetrahydrofuran; 10 mg/kg; iv; Female; F344
[17] = system: Rat; assay: concentration in plasma after dosing; conditions: 1 h; dosed: 2-Methyltetrahydrofuran; 30 mg/kg; oral; Female; F344
[18] = system: Rat; assay: concentration in plasma after dosing; conditions: 0.25 h; dosed: 2-Methyltetrahydrofuran; 30 mg/kg; oral; Female; F344
[19] = system: Rat; assay: concentration in plasma after dosing; conditions: 6 h; dosed: 2-Methyltetrahydrofuran; 100 mg/kg; oral; Female; Harlan Sprague Dawley
[20] = system: Rat; assay: concentration in brain after dosing; conditions: 0.25 h; dosed: 2-Methyltetrahydrofuran; 10 mg/kg; oral; Male; F344
[21] = system: Rat; assay: concentration in brain after dosing; conditions: 2 h; dosed: 2-Methyltetrahydrofuran; 30 mg/kg; oral; Female; F344
[22] = system: Rat; assay: concentration in plasma after dosing; conditions: 10 min; dosed: Bromochloroacetic acid; 10 mg/kg; iv; Male; F344
[23] = system: Rat; assay: concentration in plasma after dosing; conditions: 5 min; dosed: Bromochloroacetic acid; 10 mg/kg; iv; Male; F344
[24] = system: Rat; assay: concentration in plasma after dosing; conditions: 1 h; dosed: Fluorotelomer alcohol 8+2; 80 mg/kg; oral; Female; Harlan Sprague Dawley
[25] = system: Rat; assay: concentration in plasma after dosing; conditions: 6 h; dosed: Fluorotelomer alcohol 8+2; 80 mg/kg; oral; Female; Harlan Sprague Dawley
[26] = system: Rat; assay: concentration in plasma after dosing; conditions: dosed: Fluorotelomer alcohol 8+2, 160 mg/kg, oral, Female, Harlan Sprague Dawley
[27] = system: Rat; assay: concentration in plasma after dosing; conditions: dosed: Formamide, 300 mg/kg, oral, Male, F344
[28] = system: Rat; assay: concentration in plasma after dosing; conditions: dosed: Formamide, 90 mg/kg, iv, Male, Harlan Sprague Dawley
[29] = system: Rat; assay: concentration in plasma after dosing; conditions: dosed: Formamide, 600 mg/kg, oral, Female, Harlan Sprague Dawley
[30] = system: Rat; assay: concentration in plasma after dosing; conditions: dosed: Formamide, 30 mg/kg, iv, Female, F344
[31] = system: Rat; assay: concentration in plasma after dosing; conditions: dosed: Formamide, 600 mg/kg, oral, Male, Harlan Sprague Dawley
[32] = system: Rat; assay: concentration in plasma after dosing; conditions: dosed: Formamide, 90 mg/kg, iv, Male, Harlan Sprague Dawley; remark: listed apart in the source
[33] = system: Rat; assay: concentration in plasma after dosing; conditions: dosed: Formamide, 600 mg/kg, oral, Female, Harlan Sprague Dawley; remark: listed apart in the source
[34] = system: Rat; assay: concentration in plasma after dosing; conditions: dosed: Formamide, 90 mg/kg, iv, Male, Harlan Sprague Dawley; remark: listed apart in the source
[35] = system: Rat; assay: concentration in plasma after dosing; conditions: 40 min; dosed: Pyridine; 50 mg/kg; oral; Male; Harlan Sprague Dawley
[36] = system: Rat; assay: concentration in plasma after dosing; conditions: dosed: Pyridine, 5 mg/kg, iv, Male, F344
[37] = system: Rat; assay: concentration in plasma after dosing; conditions: dosed: Pyridine, 5 mg/kg, oral, Female, F344
[38] = system: Rat; assay: concentration in plasma after dosing; conditions: dosed: Pyridine, 5 mg/kg, iv, Female, F344

CC1CCCO1 (stereo not given) [2-Methyltetrahydrofuran]
Conditions | concentration in brain [µg/g] | concentration in plasma [ng/mL]
[1] | – | 5380
[2] | 3.42 | –
[3] | – | 3950
[4] | – | 142
[5] | 0.334 | –
[6] | – | 1520
[7] | 2.34 | –
[8] | 3.25 | –
[9] | – | 3000
[10] | 222 | –
[11] | – | 41.8
[12] | – | 12300
[13] | – | 40300
[14] | 2.07 | –
[15] | – | 8800
[16] | – | 658
[17] | – | 13500
[18] | – | 81.4
[19] | – | 2590
[20] | 2.17 | –
[21] | 1.89 | –

O=C(O)C(Cl)Br (stereo not given) [Bromochloroacetic acid]
Conditions | concentration in plasma [ng/mL]
[22] | 5710
[23] | 10700

OCCC(F)(F)C(F)(F)C(F)(F)C(F)(F)C(F)(F)C(F)(F)C(F)(F)C(F)(F)F [Fluorotelomer alcohol 8+2]
Conditions | concentration in plasma [ng/mL]
[24] | 715
[25] | 125

[26]
Conditions | concentration in plasma [ng/mL]
0.25 h | 269
6 h | 2060

NC=O [Formamide]
Conditions | concentration in plasma [ng/mL]
[27], 0.25 h | 137000
[27], 5 h | 282000
[28], 5 min | 132000
[28], 36 h | 16200
[29], 1 h | 610000
[29], 72 h | 28100
[30], 0.25 h | 33200
[30], 24 h | 5500
[31], 2 h | 746000
[31], 5 min | 192000
[32], 10 min | 155000
[32], 18 h | 45500
[33], 2 h | 692000
[33], 5 min | 138000
[34], 5 min | 25800
[34], 36 h | 22100

c1ccncc1 [Pyridine]
Conditions | concentration in plasma [ng/mL]
[35] | 37500

Conditions | concentration in plasma [ng/mL]
[36], 3 h | 2830
[36], 10 h | 112
[37], 2 h | 3200
[37], 14 h | 159
[38], 0.25 h | 3800
[38], 6 h | 1670

Reference: EPA's CvTdb concentration-time database
